From paper PMC4928087
Results are given in words; binding and its absence hold for the method and conditions named. For some assays here: In cells and extracts the contact can be indirect. Some binding calls cover weakened binding; strength is not graded here. For some assays here: Sequences can lack the tags named with a protein.

By UniProt entry, the sequences of proteins in these tests, tags left out. Where a name states a change or a piece, a line headed by the entry shows the natural chain unless it says otherwise.
UniProt Q39204: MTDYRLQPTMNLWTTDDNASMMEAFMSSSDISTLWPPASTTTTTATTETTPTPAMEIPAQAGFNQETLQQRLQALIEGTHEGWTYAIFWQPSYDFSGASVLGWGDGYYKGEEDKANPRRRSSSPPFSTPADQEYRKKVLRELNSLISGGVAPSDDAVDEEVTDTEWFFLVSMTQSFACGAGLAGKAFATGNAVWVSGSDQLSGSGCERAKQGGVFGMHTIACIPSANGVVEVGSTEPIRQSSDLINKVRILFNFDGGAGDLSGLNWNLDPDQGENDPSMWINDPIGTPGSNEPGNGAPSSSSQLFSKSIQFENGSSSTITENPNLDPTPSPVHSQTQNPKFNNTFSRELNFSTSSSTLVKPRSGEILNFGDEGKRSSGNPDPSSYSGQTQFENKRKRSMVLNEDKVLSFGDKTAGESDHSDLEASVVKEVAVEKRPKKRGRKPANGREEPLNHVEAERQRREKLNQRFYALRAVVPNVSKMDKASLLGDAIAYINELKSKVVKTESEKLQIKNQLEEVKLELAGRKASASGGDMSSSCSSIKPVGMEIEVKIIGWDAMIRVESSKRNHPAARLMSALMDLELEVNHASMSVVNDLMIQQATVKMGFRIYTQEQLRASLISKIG
UniProt P49597: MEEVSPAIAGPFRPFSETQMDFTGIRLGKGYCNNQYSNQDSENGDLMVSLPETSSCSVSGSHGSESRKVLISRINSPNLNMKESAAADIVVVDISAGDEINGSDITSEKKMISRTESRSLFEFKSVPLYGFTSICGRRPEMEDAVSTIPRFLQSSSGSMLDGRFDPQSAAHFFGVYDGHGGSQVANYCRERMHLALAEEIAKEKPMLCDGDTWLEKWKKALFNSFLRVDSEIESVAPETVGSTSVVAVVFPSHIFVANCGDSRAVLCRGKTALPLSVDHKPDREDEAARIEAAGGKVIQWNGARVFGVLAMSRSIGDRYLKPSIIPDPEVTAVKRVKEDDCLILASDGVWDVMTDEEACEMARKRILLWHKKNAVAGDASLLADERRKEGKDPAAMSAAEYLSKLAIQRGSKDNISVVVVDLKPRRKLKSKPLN
UniProt Q9FIP9: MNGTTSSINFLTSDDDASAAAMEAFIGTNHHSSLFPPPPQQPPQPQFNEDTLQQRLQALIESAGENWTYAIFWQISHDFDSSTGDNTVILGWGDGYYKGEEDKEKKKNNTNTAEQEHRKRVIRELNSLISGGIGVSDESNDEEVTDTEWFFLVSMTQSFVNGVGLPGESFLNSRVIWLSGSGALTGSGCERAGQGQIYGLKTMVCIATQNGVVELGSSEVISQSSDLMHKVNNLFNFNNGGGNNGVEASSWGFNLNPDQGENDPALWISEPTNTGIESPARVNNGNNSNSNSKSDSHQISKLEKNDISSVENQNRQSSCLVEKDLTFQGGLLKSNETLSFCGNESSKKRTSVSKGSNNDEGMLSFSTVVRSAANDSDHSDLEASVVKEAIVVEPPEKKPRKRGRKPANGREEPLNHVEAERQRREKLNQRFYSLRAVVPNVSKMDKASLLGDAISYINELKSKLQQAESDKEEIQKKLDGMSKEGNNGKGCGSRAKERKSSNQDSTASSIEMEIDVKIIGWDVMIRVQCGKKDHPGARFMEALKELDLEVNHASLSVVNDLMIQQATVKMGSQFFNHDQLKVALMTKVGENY

T1: PYL5 (yeast two hybrid construct) (Arabidopsis thaliana) (UniProt Q9FLB1)
T1 sequence: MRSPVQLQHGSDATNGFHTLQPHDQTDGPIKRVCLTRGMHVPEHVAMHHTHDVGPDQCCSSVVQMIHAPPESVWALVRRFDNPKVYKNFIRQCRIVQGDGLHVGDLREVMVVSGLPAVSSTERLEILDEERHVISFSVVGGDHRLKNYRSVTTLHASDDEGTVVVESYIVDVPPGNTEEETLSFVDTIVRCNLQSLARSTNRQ

T2: BD-PYL6 (ABA receptor PYL6/RCAR9 in pGBT9.BS) (Arabidopsis thaliana) (UniProt Q8S8E3)
T2 sequence: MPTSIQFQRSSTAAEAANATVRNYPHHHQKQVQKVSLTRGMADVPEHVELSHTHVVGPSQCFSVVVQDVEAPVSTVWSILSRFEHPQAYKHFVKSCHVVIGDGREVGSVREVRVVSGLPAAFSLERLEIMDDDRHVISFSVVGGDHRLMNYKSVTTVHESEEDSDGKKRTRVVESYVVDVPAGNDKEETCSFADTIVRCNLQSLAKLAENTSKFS

T3: Yc-PYL6 (PYL6 in pSPYCE(MR)) (Arabidopsis thaliana) (UniProt Q8S8E3)
T3 sequence: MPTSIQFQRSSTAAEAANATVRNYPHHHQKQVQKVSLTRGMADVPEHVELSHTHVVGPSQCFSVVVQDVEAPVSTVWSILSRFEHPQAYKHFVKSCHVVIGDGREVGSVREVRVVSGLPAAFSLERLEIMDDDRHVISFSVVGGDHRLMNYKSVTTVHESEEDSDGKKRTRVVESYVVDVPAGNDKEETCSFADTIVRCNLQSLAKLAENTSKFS


Assays:
[1] = molecular target: T1, PYL5 (yeast two hybrid construct) (Arabidopsis thaliana); assay: two-hybrid; yeast PJ69-4A, drop tests on SD-LWH with 2.5 mM 3-AT, without ABA, 30 °C, photos at days 3, 5 and 10
[2] = molecular target: T2, BD-PYL6 (ABA receptor PYL6/RCAR9 in pGBT9.BS) (Arabidopsis thaliana); assay: as above
[3] = molecular target: T1, PYL5 (yeast two hybrid construct) (Arabidopsis thaliana); assay: two-hybrid; yeast PJ69-4A, drop tests on SD-LWH with 2.5 mM 3-AT, with 10 μM ABA, 30 °C, photos at days 3, 5 and 10
[4] = molecular target: T2, BD-PYL6 (ABA receptor PYL6/RCAR9 in pGBT9.BS) (Arabidopsis thaliana); assay: as above
[5] = molecular target: T3, Yc-PYL6 (PYL6 in pSPYCE(MR)) (Arabidopsis thaliana); assay: split reporter; BiFC with split YFP in N. benthamiana leaves, 3–5 days after infiltration, confocal microscopy
[6] = molecular target: HF-MYC2 (6xHIS-3XFlag MYC2) (Arabidopsis thaliana) (UniProt Q39204); assay: co-IP; co-expression in N. benthamiana leaves; extract split and treated with 50 μM ABA or ethanol (mock); anti-Flag M2 magnetic beads against HF-MYC2, 4 °C, 2 hours, elution with 3x FLAG peptide; blot with anti-YFP

| Molecule | binding [1] | binding [2] | binding [3] | binding [4] | binding [5] | binding [6] |
| --- | --- | --- | --- | --- | --- | --- |
| ABI1 (yeast two hybrid construct) (from UniProt P49597 1-434) (enzyme) | binds | binds | binds | binds |  |  |
| MYC2 residues 1–373 (from UniProt Q39204 1-373) (domain or fragment) |  | no binding |  | no binding |  |  |
| MYC3 (yeast two hybrid construct) (from UniProt Q9FIP9 1-592) | no binding | no binding | no binding | no binding |  |  |
| Yn-ABI1 (from UniProt P49597 1-434) (enzyme) |  |  |  |  | binds |  |
| truncated MYC2 (141–623) (from UniProt Q39204 141-623) (domain or fragment) |  | binds |  | binds |  |  |
| Venus-PYL6 (receptor, UniProt Q8S8E3 1-215) MPTSIQFQRSSTAAEAANATVRNYPHHHQKQVQKVSLTRGMADVPEHVELSHTHVVGPSQCFSVVVQDVEAPVSTVWSILSRFEHPQAYKHFVKSCHVVIGDGREVGSVREVRVVSGLPAAFSLERLEIMDDDRHVISFSVVGGDHRLMNYKSVTTVHESEEDSDGKKRTRVVESYVVDVPAGNDKEETCSFADTIVRCNLQSLAKLAENTSKFS |  |  |  |  |  | binds |
